{
  "source": "PubChem BioAssay AID2451",
  "about": "(National Center for Advancing Translational Sciences (NCATS), 2010)",
  "note": "Out of some 290,000 compounds screened, about 2,100 (0.72%) were called active. The shares of active, inactive and inconclusive entries below differ from those in the screen. The call rests on the fitted dose curve; in most records, active means well fitted inhibition curve with a large enough effect; inconclusive means small, poorly fitted or top-dose-only effect, or effect the other way; inactive means flat fitted curve, though single readings scatter. Potencies beside an inconclusive call are fits to weak or partial responses and may not hold up. Potency means the concentration at half of the fitted maximal effect; tags describe the fitted curve by direction and shape.",
  "data": [
    {"molecular_target": "Fructose-bisphosphate aldolase (Giardia intestinalis (strain ATCC 50803 / WB clone C6)) (UniProt A8B2U2)", "sequence (A8B2U2 whole entry, looked up)": "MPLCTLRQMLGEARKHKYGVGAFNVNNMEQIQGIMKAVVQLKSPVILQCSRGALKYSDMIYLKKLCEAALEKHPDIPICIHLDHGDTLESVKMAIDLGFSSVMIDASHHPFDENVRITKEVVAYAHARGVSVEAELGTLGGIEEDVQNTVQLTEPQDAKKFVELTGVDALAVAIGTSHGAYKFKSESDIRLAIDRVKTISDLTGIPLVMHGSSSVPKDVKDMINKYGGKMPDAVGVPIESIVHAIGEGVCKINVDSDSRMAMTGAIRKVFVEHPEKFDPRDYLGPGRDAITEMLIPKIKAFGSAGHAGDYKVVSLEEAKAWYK", "experiment": "qHTS Assay for Inhibitors of Fructose-1,6-bisphosphate Aldolase from Giardia Lamblia; further: nearly all actives have a fitted effect of over 55% in size", "conditions": "purified Giardia FBPA; series mostly up to 59.6 µM", "outline": "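40 nM FBPA preincubated 10 min at RT with compound (up to 57.5 uM final), then substrate plus GAPDH/TPI/NAD/arsenate coupling and diaphorase/resazurin added. Fluorescence read after 20 min at RT, 525/598 nm.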", "values": [
      {"smiles": "COc1cc(NC(=S)N2CCN(c3ccccn3)CC2)c(OC)cc1Cl", "Potency": "inconclusive: 35.4 µM [inhibitor, single point]"},
      {"smiles": "CC1=C(C#N)c2nc(N)c(C#N)c(C)c2/C1=C\\c1ccc(-c2ccccc2C(=O)O)o1", "Potency": "inconclusive: 15.8 µM [inhibitor, single point]"},
      {"smiles": "Cc1ccccc1CN1CCN(C(=O)c2cccc3ccccc23)CC1", "Potency": "inconclusive: 22.4 µM [inhibitor, single point]"},
      {"smiles": "CN(C)c1cccc(C(=O)OCC(=O)NCC2CCCO2)c1", "note": "(stereo not given)", "Potency": "inconclusive: 39.8 µM [inhibitor, single point]"},
      {"smiles": "c1ccc(-c2nc(-c3nccc4ccccc34)oc2-c2ccccc2)cc1", "Potency": "inconclusive: 15.8 µM [inhibitor, single point]"},
      {"smiles": "COc1ccc(N)cc1S(=O)(=O)Nc1ccccc1Cl", "Potency": "inconclusive: 14.1 µM [inhibitor, partial curve]"},
      {"smiles": "O=C(CN1CCN(c2ncccn2)CC1)N(Cc1ccccc1)c1ccc(F)cc1", "Potency": "inconclusive: 35.4 µM [inhibitor, single point]"},
      {"smiles": "CCN(CC)CC(=O)Nc1ccc2c(c1)Nc1ccccc1CC2", "Potency": "inconclusive: 17.7 µM [inhibitor, partial curve, poor fit]"},
      {"smiles": "COc1ccccc1NC(=O)N1c2ccc(F)cc2CCC1C", "note": "(stereo not given)", "Potency": "inconclusive: 35.4 µM [inhibitor, single point]"},
      {"smiles": "Oc1c(C2=NCCNC(C(F)(F)F)=C2)ccc2ccccc12", "Potency": "inconclusive: 1.41 µM [inhibitor, partial curve]"},
      {"smiles": "O=C(N1CCCCC1)C1(c2ccccc2)CCOCC1", "Potency": "inactive"},
      {"smiles": "Cc1cc2nc3c(=O)n(CCc4ccccc4)c(=O)[nH]c3nc2cc1N", "Potency": "inconclusive: 11.2 µM [inhibitor, partial curve]"},
      {"smiles": "C=C1c2cccc(O)c2C(O)=C2C(=O)[C@]3(O)C(O)=C(C(N)=O)C(=O)C(N(C)C)C3C(O)C12", "note": "(stereo not given in full)", "Potency": "inconclusive: 17.7 µM [inhibitor, single point]"},
      {"smiles": "CC(C)(c1ccccc1)c1ccc(OCC(O)CN2CCCC2)cc1", "note": "(stereo not given)", "Potency": "inconclusive: 5.01 µM [inhibitor, full curve, poor fit]"},
      {"smiles": "CCc1nc(-c2ccccc2)c2ccccn12", "Potency": "active: 4.46 µM"},
      {"smiles": "CC(=O)Oc1c(C)cc(O)c2ccccc12", "Potency": "inconclusive: 7.92 µM [inhibitor, partial curve]"},
      {"smiles": "CCOc1ccc(/C=C2\\SC(=S)N(Nc3ccccc3)C2=O)cc1OC", "Potency": "inactive"},
      {"smiles": "CC(=O)Nc1cccc(/C(C)=N/NC(=O)c2ccc3c(c2)OCO3)c1", "Potency": "inactive"},
      {"smiles": "NC(=S)N/N=C/c1ccc(Br)o1", "Potency": "inconclusive: 15.8 µM [inhibitor, single point]"},
      {"smiles": "CN(C)C(=S)NC(=O)c1cccc(Cl)c1", "Potency": "active: 15.8 µM"},
      {"smiles": "CCOC(=O)c1c(NC(=O)/C=C/C(=O)O)sc(C)c1-c1ccc(F)cc1", "Potency": "inconclusive: 19.9 µM [activator, partial curve]"},
      {"smiles": "COc1cc(CN2CCN(Cc3ccc4cc(F)ccc4n3)CC2CCO)cc(OC)c1", "note": "(stereo not given)", "Potency": "inconclusive: 25.1 µM [inhibitor, single point]"},
      {"smiles": "O=C1C=C(N(CCO)Cc2ccccc2)c2ccccc2C1=O", "Potency": "active: 0.354 µM"},
      {"smiles": "CCCCC(=O)Nc1ncc([N+](=O)[O-])s1", "Potency": "inactive"},
      {"smiles": "Nc1c(C(=O)NC2CC2)sc2nc3c(c(-c4ccco4)c12)CC/C3=C/c1ccco1", "Potency": "active: 5.61 µM"},
      {"smiles": "COc1ccccc1NC(=O)CN1CCSc2ccccc21", "Potency": "inactive"},
      {"smiles": "COc1ccc(CN(C)CC(=O)Nc2sc3c(c2C#N)CCC3)c(OC)c1", "Potency": "active: 17.7 µM"},
      {"smiles": "COc1ccc2c(c1)CCc1c(C(=O)NCc3cccnc3)noc1-2", "Potency": "inconclusive: 7.92 µM [inhibitor, partial curve]"},
      {"smiles": "O=C(CSc1cccc[n+]1[O-])C12CC3CC(CC(C3)C1)C2", "Potency": "inconclusive: 31.5 µM [inhibitor, single point]"},
      {"smiles": "CC1(N2CCOCC2)CC2(O)C(=[N+]1[O-])CCc1c2no[n+]1[O-]", "note": "(stereo not given)", "Potency": "inconclusive: 14.1 µM [inhibitor, partial curve]"},
      {"smiles": "Cc1[nH]nc2c1C(c1cc(Br)cs1)C(C#N)=C(N)O2", "note": "(stereo not given)", "Potency": "inconclusive: 15.8 µM [inhibitor, partial curve]"},
      {"smiles": "CCOC(=O)C1CCN(C(=S)NC(=O)c2cccs2)CC1", "Potency": "inconclusive: 15.8 µM [inhibitor, partial curve]"},
      {"smiles": "COc1ccc(OCCCn2ccnc2)cc1", "Potency": "inconclusive: 28.2 µM [inhibitor, partial curve]"},
      {"smiles": "CC(C)C(=O)Nc1ccc(N2CCCC2)cc1", "Potency": "inconclusive: 11.2 µM [inhibitor, partial curve]"},
      {"smiles": "COc1ccccc1N1CCN(CC(=O)Nc2c(C)n(C)n(-c3ccccc3)c2=O)CC1", "Potency": "inconclusive: 14.1 µM [inhibitor, partial curve]"},
      {"smiles": "COc1ccc(CNC(=O)C2CC(c3ccccc3[N+](=O)[O-])=NO2)cc1", "note": "(stereo not given)", "Potency": "inactive"},
      {"smiles": "O=C(COC(=O)/C=C/c1ccco1)Nc1ncc(Cl)cc1Cl", "Potency": "inactive"},
      {"smiles": "NC(=O)CN1CCOCCOCCN(CC(N)=O)CCOCC1", "Potency": "inconclusive: 5 µM [activator, full curve]"},
      {"smiles": "Cc1[nH]c2ccccc2c1C1=CCNCC1", "Potency": "inconclusive: 17.7 µM [inhibitor, partial curve]"},
      {"smiles": "CC1=NN(C(N)=S)C(=O)C1N=Nc1ccccc1C", "note": "(stereo not given)", "Potency": "inconclusive: 19.9 µM [activator, single point]"},
      {"smiles": "Oc1ccc(/C=N/N(Cc2ccccc2)c2ccccc2)c(O)c1O", "Potency": "inconclusive: 12.6 µM [inhibitor, partial curve]"},
      {"smiles": "Cc1c(C#N)c(NC(=O)c2cccc(Cl)c2)n(Cc2ccccc2)c1C", "Potency": "inactive"},
      {"smiles": "CCCc1cc(-c2n[nH]c(=S)n2CC(C)C)cs1", "Potency": "inactive"},
      {"smiles": "COc1cccc(-n2c(SCC(=O)O)nnc2-c2cccnc2)c1", "Potency": "inactive"},
      {"smiles": "COc1ccc2nc(C)cc(Sc3nc4ccccc4s3)c2c1", "Potency": "inconclusive: 9.98 µM [inhibitor, partial curve]"},
      {"smiles": "CNC(=S)N/N=C(\\C)c1cccc([N+](=O)[O-])c1", "Potency": "inconclusive: 14.1 µM [inhibitor, partial curve]"},
      {"smiles": "O=c1c(OC2OC(CO)C(O)C(O)C2OC2OC(CO)C(O)C(O)C2OC2OC(CO)C(O)C(O)C2O)c(-c2ccc(O)c(O)c2)oc2cc(O)cc(O)c12", "note": "(stereo not given)", "Potency": "inconclusive: 22.3 µM [inhibitor, partial curve]"},
      {"smiles": "CC(C)COC(=O)c1ccc2c(c1O)C(=O)c1ccccc1C2=O", "Potency": "inconclusive: 3.15 µM [inhibitor, full curve, poor fit]"},
      {"smiles": "CCN(CC)CCNC(C(=O)Nc1cccc(C(C)=O)c1)c1ccccc1", "note": "(stereo not given)", "Potency": "inconclusive: 19.9 µM [inhibitor, partial curve]"},
      {"smiles": "O=C(CNC(=O)c1cccs1)N/N=C/c1ccco1", "Potency": "inactive"},
      {"smiles": "O=C1CC(CCC(=O)NC2CC2)c2ccccc2N1", "note": "(stereo not given)", "Potency": "inconclusive: 31.5 µM [inhibitor, single point]"},
      {"smiles": "S=C1NCCOCCNC(=S)NCCOCCOCCOCCN1", "Potency": "active: 4.46 µM"},
      {"smiles": "COc1c(C)cc(C(=O)C2CCCN(C(=O)c3snnc3C)C2)cc1C", "note": "(stereo not given)", "Potency": "inactive"},
      {"smiles": "Cc1ccoc1C(=O)NCc1occc1C(=O)O", "Potency": "inconclusive: 28.2 µM [inhibitor, partial curve]"},
      {"smiles": "COc1ccc2cc3cc(C(=O)NCc4ccc5c(c4)OCO5)oc3nc2c1", "Potency": "inactive"},
      {"smiles": "COc1ccc(/C=N/NC(=O)c2ccccc2O)cc1Cn1cc(Cl)cn1", "Potency": "inactive"},
      {"smiles": "Clc1nssc1=Nc1ccc(Br)cc1", "Potency": "inconclusive: 28.1 µM [inhibitor, single point]"},
      {"smiles": "CCC(C)Nc1c2c(nc3c(-c4ccccc4)c(C)nn13)CCC2", "note": "(stereo not given)", "Potency": "inactive"},
      {"smiles": "O=[n+]1c2c(n([O-])c3ccccc31)CCCC2", "Potency": "inconclusive: 9.98 µM [inhibitor, partial curve]"},
      {"smiles": "CCOC(=O)N1CCC(Nc2cccc(SC)c2)CC1", "Potency": "inconclusive: 5.61 µM [inhibitor, full curve]"},
      {"smiles": "Cc1cccc(OCC(=O)Nc2ccc3oc(=O)ccc3c2)c1", "Potency": "inactive"},
      {"smiles": "Cc1nc2ncccn2c1-c1csc(Nc2cccc(C(=O)O)c2)n1", "Potency": "inconclusive: 15.8 µM [inhibitor, partial curve]"},
      {"smiles": "COc1cc(C(c2c(C(=O)O)[nH]c3ccccc23)c2c(C(=O)O)[nH]c3ccccc23)ccc1OCc1ccccc1", "Potency": "inactive"},
      {"smiles": "O=C1Cc2ccccc2Sc2c(OCCN3CCCCC3)cccc21", "Potency": "inconclusive: 12.6 µM [inhibitor, partial curve]"},
      {"smiles": "CCc1ccc(-c2csc(NC(=O)C3CCCO3)c2C(=O)OC(C)C)cc1", "note": "(stereo not given)", "Potency": "inactive"},
      {"smiles": "CCOC(=O)N1CCN(CCCc2ccccc2)CC1", "Potency": "inconclusive: 14.1 µM [inhibitor, partial curve]"},
      {"smiles": "O=C(CCN1CCOCC1)NNC(=S)NC(=O)c1ccccc1", "Potency": "inconclusive: 19.9 µM [inhibitor, single point]"},
      {"smiles": "Cc1ccc(C)c(NC(=S)NC(NC(=O)OCc2ccccc2)C(Cl)(Cl)Cl)c1", "note": "(stereo not given)", "Potency": "inactive"},
      {"smiles": "Cc1[nH]n(-c2ccccc2)c(=O)c1/C=N/O", "Potency": "active: 15.8 µM"},
      {"smiles": "O=C(Nc1ncccn1)c1ccc([N+](=O)[O-])cc1", "Potency": "inactive"},
      {"smiles": "CC(C)CC(=O)N1CCC(N(CCc2ccccc2)Cc2ccccc2)CC1", "Potency": "active: 25.1 µM"},
      {"smiles": "Cc1c(N=Nc2c(O)[nH]c(=S)[nH]c2=O)c(=O)n(-c2ccccc2)n1C", "Potency": "inconclusive: 17.7 µM [inhibitor, single point]"},
      {"smiles": "Cc1cccc(-c2noc(-c3cc4ccccc4oc3=O)n2)c1", "Potency": "inactive"},
      {"smiles": "COc1ccc(S(=O)(=O)N2CCN(Cc3ccco3)CC2)cc1", "Potency": "inconclusive: 25.1 µM [inhibitor, partial curve]"},
      {"smiles": "NC(Cc1ccc(O)c([N+](=O)[O-])c1)C(=O)O", "note": "(stereo not given)", "Potency": "inconclusive: 17.7 µM [inhibitor, partial curve]"}
    ]}
  ]
}
